Data published in the supplement of paper PMC8728848.
The list shows a part of the results.

What was measured:
Assay in all cases: glycan array binding signal (z-score within array); higher = stronger binding
Conditions in all cases: glycan notation: IUPAC condensed, linker removed
[1] = target: Fuc(a1-2)Gal(b1-4)[Fuc(a1-3)]GlcNAc
Outline: (§1)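 Glycan array data were curated from 3228 arrays in the Consortium for Functional Glycomics database and kept only where the protein sequence was available. Glycan names were converted to IUPAC-condensed notation, and columns mapping to the same glycan were averaged. The binding signal is a within-array Z-score, averaged across arrays of the same protein sequence at different concentrations or buffers and across linkers. Negative Z-scores can be read as non-binding.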

[2] = target: Fuc(a1-2)Gal(b1-4)[Fuc(a1-3)]GlcNAc(b1-2)Man(a1-3)[Fuc(a1-2)Gal(b1-4)[Fuc(a1-3)]GlcNAc(b1-2)Man(a1-6)]Man(b1-4)GlcNAc(b1-4)[Fuc(a1-6)]GlcNAc
Outline: as §1

[3] = target: Fuc(a1-2)Gal(b1-4)[Fuc(a1-3)]GlcNAc(b1-2)[Fuc(a1-2)Gal(b1-4)[Fuc(a1-3)]GlcNAc(b1-4)]Man(a1-3)[Fuc(a1-2)Gal(b1-4)[Fuc(a1-3)]GlcNAc(b1-2)Man(a1-6)]Man(b1-4)GlcNAc(b1-4)GlcNAc
Outline: as §1

[4] = target: Fuc(a1-2)Gal(b1-4)[Fuc(a1-3)]GlcNAc(b1-3)Gal(b1-4)[Fuc(a1-3)]GlcNAc
Outline: as §1

[5] = target: Fuc(a1-2)Gal(b1-4)[Fuc(a1-3)]GlcNAc(b1-3)Gal(b1-4)[Fuc(a1-3)]GlcNAc(b1-3)Gal(b1-4)[Fuc(a1-3)]GlcNAc
Outline: as §1

[6] = target: Fuc(a1-2)Gal(b1-4)[Fuc(a1-3)]GlcNAc(b1-3)GalNAc
Outline: as §1

[7] = target: Fuc(a1-2)Gal(b1-4)[Fuc(a1-3)]GlcNAc(b1-3)[Neu5Ac(a2-6)Gal(b1-4)GlcNAc(b1-6)]Gal(b1-4)Glc
Outline: as §1

[8] = target: Fuc(a1-2)Gal3S(b1-4)GlcNAc
Outline: as §1

[9] = target: Fuc(a1-2)Gal6S(b1-3)GlcNAc
Outline: as §1

[10] = target: Fuc(a1-2)Gal6S(b1-3)GlcNAc6S
Outline: as §1

[11] = target: Fuc(a1-2)Gal6S(b1-4)Glc
Outline: as §1

[12] = target: Fuc(a1-2)Gal6S(b1-4)Glc6S
Outline: as §1

[13] = target: Fuc(a1-2)[Gal(a1-3)]Gal
Outline: as §1

[14] = target: Fuc(a1-2)[Gal(a1-3)]Gal(b1-3)GalNAc
Outline: as §1

[15] = target: Fuc(a1-2)[Gal(a1-3)]Gal(b1-3)GalNAc(b1-3)Gal(a1-4)Gal(b1-4)Glc
Outline: as §1

[16] = target: Fuc(a1-2)[Gal(a1-3)]Gal(b1-3)GlcNAc
Outline: as §1

[17] = target: Fuc(a1-2)[Gal(a1-3)]Gal(b1-3)GlcNAc(b1-2)Man(a1-3)[Fuc(a1-2)[Gal(a1-3)]Gal(b1-3)GlcNAc(b1-2)Man(a1-6)]Man(b1-4)GlcNAc(b1-4)GlcNAc
Outline: as §1

[18] = target: Fuc(a1-2)[Gal(a1-3)]Gal(b1-3)GlcNAc(b1-2)Man(a1-3)[Fuc(a1-2)[Gal(a1-3)]Gal(b1-3)GlcNAc(b1-2)Man(a1-6)]Man(b1-4)GlcNAc(b1-4)[Fuc(a1-6)]GlcNAc
Outline: as §1

[19] = target: Fuc(a1-2)[Gal(a1-3)]Gal(b1-3)GlcNAc(b1-3)GalNAc
Outline: as §1

[20] = target: Fuc(a1-2)[Gal(a1-3)]Gal(b1-3)GlcNAc(b1-6)GalNAc
Outline: as §1

[21] = target: Fuc(a1-2)[Gal(a1-3)]Gal(b1-4)Glc
Outline: as §1

[22] = target: Fuc(a1-2)[Gal(a1-3)]Gal(b1-4)GlcNAc
Outline: as §1

[23] = target: Fuc(a1-2)[Gal(a1-3)]Gal(b1-4)GlcNAc(b1-2)Man
Outline: as §1

[24] = target: Fuc(a1-2)[Gal(a1-3)]Gal(b1-4)GlcNAc(b1-2)Man(a1-3)[Fuc(a1-2)[Gal(a1-3)]Gal(b1-4)GlcNAc(b1-2)Man(a1-6)]Man(b1-4)GlcNAc(b1-4)GlcNAc
Outline: as §1

[25] = target: Fuc(a1-2)[Gal(a1-3)]Gal(b1-4)GlcNAc(b1-2)Man(a1-3)[Fuc(a1-2)[Gal(a1-3)]Gal(b1-4)GlcNAc(b1-2)Man(a1-6)]Man(b1-4)GlcNAc(b1-4)[Fuc(a1-6)]GlcNAc
Outline: as §1

[26] = target: Fuc(a1-2)[Gal(a1-3)]Gal(b1-4)GlcNAc(b1-3)GalNAc
Outline: as §1

[27] = target: Fuc(a1-2)[Gal(a1-3)]Gal(b1-4)GlcNAc(b1-6)GalNAc
Outline: as §1

[28] = target: Fuc(a1-2)[Gal(a1-3)]Gal(b1-4)[Fuc(a1-3)]Glc
Outline: as §1

[29] = target: Fuc(a1-2)[Gal(a1-3)]Gal(b1-4)[Fuc(a1-3)]GlcNAc
Outline: as §1

[30] = target: Fuc(a1-2)[Gal(a1-3)]Gal(b1-4)[Fuc(a1-3)]GlcNAc(b1-3)GalNAc
Outline: as §1

[31] = target: Fuc(a1-2)[Gal(a1-4)]Gal(b1-4)GlcNAc
Outline: as §1

[32] = target: Fuc(a1-2)[GalNAc(a1-3)]Gal
Outline: as §1

[33] = target: Fuc(a1-2)[GalNAc(a1-3)]Gal(b1-3)GalNAc(a1-3)[Fuc(a1-2)]Gal(b1-4)GlcNAc
Outline: as §1

[34] = target: Fuc(a1-2)[GalNAc(a1-3)]Gal(b1-3)GalNAc(b1-3)Gal(a1-4)Gal(b1-4)Glc
Outline: as §1

[35] = target: Fuc(a1-2)[GalNAc(a1-3)]Gal(b1-3)GlcNAc
Outline: as §1

[36] = target: Fuc(a1-2)[GalNAc(a1-3)]Gal(b1-3)GlcNAc(b1-2)Man(a1-3)[Fuc(a1-2)[GalNAc(a1-3)]Gal(b1-3)GlcNAc(b1-2)Man(a1-6)]Man(b1-4)GlcNAc(b1-4)GlcNAc
Outline: as §1

[37] = target: Fuc(a1-2)[GalNAc(a1-3)]Gal(b1-3)GlcNAc(b1-2)Man(a1-3)[Fuc(a1-2)[GalNAc(a1-3)]Gal(b1-3)GlcNAc(b1-2)Man(a1-6)]Man(b1-4)GlcNAc(b1-4)[Fuc(a1-6)]GlcNAc
Outline: as §1

[38] = target: Fuc(a1-2)[GalNAc(a1-3)]Gal(b1-3)GlcNAc(b1-3)GalNAc
Outline: as §1

B1: Threefoil (Haloarcula marismortui) (protein)
chain: GSSHHHHHHHHHHSSGLVPRGSHMGDGYYKLVARHSGKALDVENASTSDGANVIQYSYSGGDNQQWRLVDLGDGYYKLVARHSGKALDVENASTSDGANVIQYSYSGGDNQQWRLVDLGDGYYKLVARHSGKALDVENASTSDGANVIQYSYSGGDNQQWRLVDL
- glycan array binding signal (z-score) [1]: -0.152
- glycan array binding signal (z-score) [2]: -0.217
- glycan array binding signal (z-score) [3]: -0.095
- glycan array binding signal (z-score) [4]: -0.301
- glycan array binding signal (z-score) [5]: -0.189
- glycan array binding signal (z-score) [6]: -0.142
- glycan array binding signal (z-score) [7]: -0.226
- glycan array binding signal (z-score) [8]: -0.199
- glycan array binding signal (z-score) [9]: -0.22
- glycan array binding signal (z-score) [10]: -0.15
- glycan array binding signal (z-score) [11]: -0.265
- glycan array binding signal (z-score) [12]: -0.153
- glycan array binding signal (z-score) [13]: -0.112
- glycan array binding signal (z-score) [14]: -0.209
- glycan array binding signal (z-score) [15]: -0.236
- glycan array binding signal (z-score) [16]: -0.123
- glycan array binding signal (z-score) [17]: -0.227
- glycan array binding signal (z-score) [18]: -0.156
- glycan array binding signal (z-score) [19]: -0.235
- glycan array binding signal (z-score) [20]: 0.017
- glycan array binding signal (z-score) [21]: -0.335
- glycan array binding signal (z-score) [22]: -0.26
- glycan array binding signal (z-score) [23]: -0.123
- glycan array binding signal (z-score) [24]: -0.135
- glycan array binding signal (z-score) [25]: -0.223
- glycan array binding signal (z-score) [26]: -0.182
- glycan array binding signal (z-score) [27]: -0.323
- glycan array binding signal (z-score) [28]: -0.186
- glycan array binding signal (z-score) [29]: -0.09
- glycan array binding signal (z-score) [30]: -0.309
- glycan array binding signal (z-score) [31]: -0.168
- glycan array binding signal (z-score) [32]: -0.17
- glycan array binding signal (z-score) [33]: -0.303
- glycan array binding signal (z-score) [34]: -0.169
- glycan array binding signal (z-score) [35]: -0.165
- glycan array binding signal (z-score) [36]: -0.052
- glycan array binding signal (z-score) [37]: -0.144
- glycan array binding signal (z-score) [38]: -0.266
